Some of these densities may be calculated back from excess volumes.
Assay: xn = mol fraction of the nth substance listed
Details: 101 kPa

CCCC[n+]1ccn(C)c1.O=S(=O)([O-])O + O
mass density [kg/m3]
Details	x2 = 0.0083	x2 = 0.095	x2 = 0.2013	x2 = 0.3903	x2 = 0.5924	x2 = 0.7934	x2 = 0.8988
303.15 K	1276	1274.3	1271.6	1263.9	1248.4	–	1157.5
313.15 K	1269.9	1268	1265.2	1257.3	1241.9	1203.2	1150.4
323.15 K	1263.9	–	1258.8	1251.1	–	1196.2	1143.3
333.15 K	1258	1255.5	1252.7	1245	1229	1189.3	1136.2
343.15 K	–	1249.7	1246.8	1238.9	1222.6	1182.4	–

CCOS(=O)(=O)[O-].CC[n+]1ccn(C)c1 + O
Details	mass density [kg/m3]
283.15 K, x2 = 0.0023	1250.3
283.15 K, x2 = 0.1225	1247.8
283.15 K, x2 = 0.427	1237.9
283.15 K, x2 = 0.798	1192.9
293.15 K, x2 = 0.798	1185.7
303.15 K, x2 = 0.427	1223.8
303.15 K, x2 = 0.6124	1210.4
303.15 K, x2 = 0.798	1178.5
313.15 K, x2 = 0.427	1216.9
313.15 K, x2 = 0.6124	1203.3
313.15 K, x2 = 0.798	1171.2
323.15 K, x2 = 0.6124	1196.3
323.15 K, x2 = 0.8983	1118.6
333.15 K, x2 = 0.0023	1216.2
333.15 K, x2 = 0.6124	1189.4
333.15 K, x2 = 0.8983	1111.6
343.15 K, x2 = 0.6124	1182.4
343.15 K, x2 = 0.798	1149.4
343.15 K, x2 = 0.8983	1104.3

CC[n+]1ccn(C)c1.COS(=O)(=O)[O-] + O
mass density [kg/m3]
Details	278.15 K	288.15 K	298.15 K	308.15 K	318.15 K	328.15 K	338.15 K
x2 = 0.0023	1301.4	–	–	1280.4	–	–	1260.3
x2 = 0.0887	1299.2	1292.1	–	1278.3	1271.5	1264.8	1258.3
x2 = 0.2235	1294.9	1287.9	1280.9	–	1267.3	1260.6	1254.1
x2 = 0.4163	1285.1	1278	1271	–	1257.2	1250.5	–
x2 = 0.6106	1265.8	1258.7	1251.7	1244.7	1237.8	1230.9	–
x2 = 0.7999	1219.5	1212.5	1205.6	1198.6	1191.6	1184.5	1177.4
x2 = 0.8948	1164.8	–	1152.2	–	1139.1	1132.3	1125.4

Reference: a compilation of properties of binary mixtures (doi:10.1021/je300622r)
